Test results as given in PubChem BioAssay AID463173 (ICCB-Longwood Screening Facility, Harvard Medical School, 2010).
The campaign covered roughly 52,000 compounds. About 1,700 (3.3%) were called active. Cut-off read from the data, not from the text of the source: active = survival mostly below about 52% (no sharp cut-off); inactive = mostly above about 56%. The list shows a part of the results.

What follows are compounds tested on Wild type (assay: growth inhibition of S. aureus wild type versus tarO mutant, primary screen, teichoic acid synthesis inhibitors, RN4220, OD600 (AID 463173)). Conditions: S. aureus RN4220 wild type/DeltatarO growth, OD600, 18 h, hits give low values, screened at 18.75 µg/mL (by protocol).

Row | Compound | survival
1 | COc1ccc(-c2csc(N)n2)cc1C | inactive: 117%
2 | O=C(Nc1ccccc1F)c1ccc2c(Cl)c3c(nc2c1)CCC3 | inactive: 34%
3 | CCCNc1ccc(-c2nc(-c3ccccn3)no2)cc1[N+](=O)[O-] | inactive: 122%
4 | CCCCNC(=O)c1ccc2c(c1)ncn2-c1cc(OC)ccc1OC | inactive: 118%
5 | Cc1c(Cl)cccc1-n1ncc(C(=O)Nc2ccc(Br)cc2F)c1C1CCNCC1 | inactive: 79%
6 | CCCn1c(SCC(=O)N(C2CCCCC2)C2CCCCC2)nc2c1c(=O)n(C)c(=O)n2C | inactive: 102%
7 | CCOc1ccc2nc(SCC(=O)O)c(C)cc2c1 | inactive: 116%
8 | CCN(CCCNC(=O)c1nn(-c2ccc(OC)cc2)c(=O)c2c1c1ccccc1n2C)c1ccccc1 | inactive: 82%
9 | CCOc1ccccc1CNCc1cccn1-c1nnc(N2CCN(c3ccccc3)CC2)s1 | inactive: 60%
10 | COc1ccccc1NC(=O)C1=C(C)Nc2nnnn2C1c1ccc(C(F)(F)F)cc1 (configuration not stated) | inactive: 85%
11 | CCc1cccc(NC(=O)CCNS(=O)(=O)c2cccc3nonc23)c1 | inactive: 106%
12 | COC(=O)c1ccc(NC(=O)c2nc(-c3ccc(Cl)cc3)n3c2CCCCC3)cc1 | inactive: 80%
13 | CCOC(=O)Cn1cnc2sc(C(=O)OCC)c(C)c2c1=O | inactive: 101%
14 | CC(=O)c1ccc(NC(=O)c2cc(-c3ccc(C)s3)nc3ccccc23)cc1 | inactive: 91%
15 | CCC(C)NC(=O)Cn1c(=O)n(CCCCCC(=O)NCc2ccccc2Cl)c(=O)c2sccc21 (configuration not stated) | inactive: 128%
16 | O=C(NCc1cccc(Br)c1)c1cnn(-c2ccc(F)cc2)c1-n1cccc1 | inactive: 70%
17 | CC(C)(C)CC(=O)NCC(c1ccc2c(c1)OCO2)N1CCN(c2ccccc2)CC1 (configuration not stated) | inactive: 68%
18 | O=C1C(c2ccc(F)cc2)N(CCc2ccc(Cl)cc2)C(=O)CN1C1CCCCCC1 (configuration not stated) | inactive: 63%
19 | CCOC(=O)N1CCc2c(sc3c2c(=O)n(CCc2ccccc2)c(=O)n3CC(=O)Nc2ccc(C)cc2)C1 | inactive: 89%

Row | Compound | survival
20 | O=C(CSc1nccn1-c1ccc(Cl)cc1)Nc1ccc(Cl)c(Cl)c1 | inactive: 73%
21 | COc1cc(NC(=O)N2c3ccccc3Sc3ccccc32)cc(OC)c1 | inactive: 65%
22 | COc1ccccc1C(=O)NCC(c1cccnc1)N1CCc2ccccc2C1 (configuration not stated) | inactive: 84%
23 | O=C(CC(c1ccccc1)c1ccccc1)N1CCN(Cc2ccc3c(c2)OCO3)CC1 | inactive: 105%
24 | CCCOC(=O)c1c(NC(=O)C(C)Sc2nc(-c3ccccc3)cc(C(F)(F)F)n2)sc(C(=O)N(C)C)c1C (configuration not stated) | inactive: 93%
25 | CN1CCc2c(sc(NC(=O)CSc3ccccc3)c2-c2nc3ccccc3s2)C1 | inactive: 80%
26 | Cc1cccc(N2CCN(C(=O)CN3C(=O)CSc4c3c(C)nn4-c3ccccc3)CC2)c1C | inactive: 68%
27 | COc1cc(NC(=O)CCc2c(C)nn(-c3ccc4nnc(C)n4n3)c2C)cc(OC)c1OC | inactive: 87%
28 | CCc1ccc(NC(=O)[C@H](Cc2ccccc2)N2Cc3ccccc3C2=O)cc1 | inactive: 87%
29 | CN(C)CCNC(=O)C1CCN(Cc2cc3ccccc3n2Cc2ccccc2)CC1 | inactive: 78%
30 | CCOc1ccc(S(=O)(=O)c2c(C(=O)c3ccc(CC)cc3)cnc3ccc(C)cc23)cc1 | inactive: 87%
31 | CCOc1ccc(N2CC(NC(=O)c3cccs3)CC2=O)cc1 (configuration not stated) | inactive: 88%
32 | CCCN(CCC)CCCNC(=O)c1cc2c(-c3ccc(OC)c(OC)c3)nn(C)c2s1 | inactive: 125%
33 | COc1ccc(C2C(=O)N(C3CCCCCC3)CC(=O)N2Cc2ccc(C)cc2)cc1 (configuration not stated) | inactive: 75%
34 | O=C1CC(c2nc(-c3ccc(Cl)cc3)no2)CN1c1ccc2c(c1)OCCO2 (configuration not stated) | inactive: 82%
35 | O=C(CSc1nc2c([nH]c3ccccc32)c(=O)n1-c1ccccc1)N1CCc2ccccc21 | inactive: 73%
36 | Cc1ccc(S(=O)(=O)n2nc(-c3ccccc3)nc2NCc2ccc(Cl)cc2)cc1 | inactive: 87%
37 | S=c1[nH]nc(CCCOc2ccc(Cl)cc2Cl)o1 | inactive: 95%
38 | CSc1ccc(CCNC(=O)CCn2c(=O)c3cccn3c3ccc(F)cc32)cc1 | inactive: 84%

Row | Compound | survival
39 | N#Cc1c(N2C(=O)C3C4C=CC(C4)C3C2=O)sc2c1CCCC2 (configuration not stated) | inactive: 108%
40 | CCOC(=O)c1c(NC(=O)c2cc3ccccc3c(=O)o2)sc2c1CCC(C)C2 (configuration not stated) | inactive: 132%
41 | COc1cc(OC)cc(C(=O)Nc2cc3c(cc2N2CCCC2)n(C)c(=O)c(=O)n3C)c1 | inactive: 131%
42 | CCc1c(C)[nH][n+]2cnn(Cc3ccc(Cl)cc3)c2c1=O | inactive: 86%
43 | Cc1ccc(SCC(=O)Nc2ccc3oc(-c4ccccc4C)nc3c2)cc1 | inactive: 86%
44 | COc1ccc(-n2c(=O)c3ccccc3n(CC(=O)Nc3ccccc3OC)c2=O)cc1 | inactive: 89%
45 | COc1cc(C2CC(=O)Nc3c2c(C)nn3-c2nncc(-c3ccc(C)cc3)n2)cc(OC)c1OC (configuration not stated) | inactive: 96%
46 | Cc1ccc2c(CC(=O)Nc3c(C(=O)c4ccc(C)c(F)c4)oc4ccccc34)coc2c1 | inactive: 109%
47 | CCOc1ccc(NC(=O)c2cnc3ccccn3c2=O)cc1 | inactive: 91%
48 | Cc1ccc(CNC(=O)c2cc(C)nc3c2c(C)nn3-c2ccc(C)cc2)cc1 | inactive: 47%
49 | CCCCOc1ccc(C2(C)CC(=O)NC2=O)cc1 (configuration not stated) | inactive: 107%
50 | CC(=O)c1ccc(NC(=O)c2cnn(-c3cccc(F)c3)c2-n2cccc2)cc1 | inactive: 75%
51 | O=C(CN1CCC(n2nnc3ccccc32)CC1)Nc1ccccc1Cl | inactive: 96%
52 | COc1ccc(S(=O)(=O)c2c(O)c3ccc(C(=O)NCc4ccc(F)cc4)cc3[nH]c2=O)cc1 | inactive: 120%
53 | COc1ccc(NC(=O)CSc2nc(-c3ccc(F)cc3)[nH]c2-c2ccc(C)cc2)cc1OC | inactive: 69%
54 | CCOC(=O)c1[nH]c(C)c(/C=N/O)c1C | inactive: 95%
55 | CC(C)CCNC(=O)C1CCN(Cc2ccccc2Cl)CC1 | inactive: 105%
56 | Cc1ccc2nc(SCC(=O)N(C)C3CCCCC3)c(C#N)cc2c1 | inactive: 109%
57 | O=C(Nc1ccc(Oc2ccccc2)cc1)C1CCN(S(=O)(=O)c2ccc(Cl)cc2)CC1 | inactive: 74%
